SMILES strings stand for the structures.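 All cell lines were grown in 96-well plates and treated with compound for 48 hours. Abbreviation: GI50, concentration required for 50% inhibition of growth. TGI: total growth inhibition.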

In this test the test system is NCI-H322M lung. Kind of test: DTP human tumour cell line panel, 48 h.
Usually TGI stands for the concentration giving total growth inhibition. Read a low TGI as more potent growth arrest. `COC1C(O)CC(OC2CC(OC3CC(O[C@@H]4C(=O)c5c(cc6cc(OC7CC(OC8CC(O)C(O)C(C)O8)C(O)C(C)O7)c(C)c(O)c6c5O)C[C@H]4[C@H](OC)C(=O)[C@@H](O)[C@@H](C)O)OC(C)C3O)OC(C)C2O)OC1C` (stereo partly drawn) returned a TGI of 10.5 µM. In other words, the double-digit micromolar range. Take `C=C[Si](C)(C)COC(=O)/C(C#N)=C/C=C/c1ccccc1`: the total growth inhibition concentration (TGI) is greater than 100 µM. Still for that read-out and setting: under `CC(C)C[C@H]1C(=O)N2CCC[C@H]2[C@]2(O)O[C@](NC(=O)[C@@H]3C=C4c5cccc6[nH]c(Br)c(c56)C[C@H]4N(C)C3)(C(C)C)C(=O)N12` stands greater than 100 µM; under `COc1cc(/C=C2\CC(C)C/C(=C\c3ccc(O)c(OC)c3)C2=O)ccc1O` (stereo not drawn), 18.2 µM. The GI50 is the concentration at which growth is held to half of that of the control. Take `O=C(Nc1nc(-c2ccccc2)cs1)c1cc(O)c(O)c(O)c1`: the GI50 was 7.79 µM and the TGI worked out at 78.1 µM. For `C=C(CN(C)Cc1ccccc1)c1ccc(C(=O)Nc2ccccc2N)cc1`, the GI50 was 5.05 µM and the TGI is 24.2 µM. As to `Cc1ccc(/C=C2\CCCCCC2=O)cc1`, the TGI was greater than 100 µM.

In the case of `CC(C)(C)OC(=O)NC(Cc1ccc(OCc2ccccc2)cn1)C(N)=O` (stereo not drawn), the TGI was greater than 100 µM. With `O=C(NCCNC(=O)c1ccc(F)cc1)Nc1ccc(-n2cc(-c3ccncc3)c(-c3ccc(Cl)c(O)c3)n2)cc1`, the GI50 is 1.05 µM and the TGI was 6.8 µM. As to `OCc1ncc(-c2ccccc2)s1`, the GI50 is greater than 100 µM and the TGI is greater than 100 µM. Consider `CC1(Cc2cc3c(cc2C2(c4ccc([N+](=O)[O-])cc4)OCCO2)OCO3)OCCO1`, for which the concentration for total growth inhibition (TGI) is greater than 100 µM.

For `C=C1[C@@H](O)C[C@H]2C(C)(C)C[C@H](Cl)C[C@]2(C)[C@H]1C[C@H](O)[C@H]1CC(=O)NC1=O`, the 50% growth inhibitory concentration (GI50) is less than 0.01 µM and the TGI worked out at 0.199 µM. For the compound `CCOc1ccc(N=Nc2ccc(-c3ccc(N=Nc4c(O)ccc5cc(S(=O)(=O)O)cc(S(=O)(=O)O)c45)cc3)cc2)cc1`, the total growth inhibition concentration (TGI) was greater than 100 µM. For the compound `COc1ccc(C2CC(c3cccc(OC)c3)=NN2C(=O)c2cc(OC)c(OC)c(OC)c2)cc1` (stereo not drawn), the GI50 is greater than 20.4 µM and the TGI is greater than 100 µM.

Compound `CN(C)CCN=C1Nc2ccccc2C(=O)N2CSCC12` (stereo not drawn) came in with a concentration for total growth inhibition (TGI) greater than 100 µM. `O=C(O)c1cc2cc(O)ccc2[nH]1`: the GI50 was greater than 100 µM and the total growth inhibition concentration (TGI) was greater than 100 µM. Take `c1ccc2c(-c3cnn4cc(-c5ccc(N6CCNCC6)cc5)cnc34)ccnc2c1`: the GI50 is 1.16 µM and the total growth inhibition concentration (TGI) came to 2.54 µM. The like results for `C[CH2][Ge]([CH2]C)([CH2]C)[O]C(=O)C([O][Ge]([CH2]C)([CH2]C)[CH2]C)c1ccccc1` (stereo not drawn) were, in that order, 32.9 µM and greater than 100 µM.

Compound `O=C1/C(=C/c2ccc(OC(=O)c3ccc(Cl)cc3)cc2)CCC/C1=C\c1ccc(OC(=O)c2ccc(Cl)cc2)cc1` displayed a concentration for total growth inhibition (TGI) greater than 100 µM.

Consider `Oc1c(Cl)cc(CN(Cc2cc(Cl)c(O)c(Cl)c2)C2CCCCC2)cc1Cl`, for which the TGI was greater than 100 µM. As for `Cc1ccc(S(=O)(=O)N[C@@H](Cc2ccccc2)C(=O)CCl)cc1`, the GI50 was 20 µM and the total growth inhibition concentration (TGI) was found to be 38.3 µM.

In turn, `COc1ccc2cc(/C=N\NC(=O)Nc3ccc([N+](=O)[O-])cc3)ccc2c1` displayed a TGI of 24.8 µM.

`O=C(NN1C(=O)C(Cl)C1c1cccc(Cl)c1)c1ccccc1O` (stereo not drawn): the TGI is greater than 100 µM.

Take `CNC12C3C4C1C1C2C3C41C(=O)N[C@H](C(=O)N(C)[C@H](C[C@@H](OC(C)=O)c1nc(C(=O)N[C@@H](Cc2ccccc2)C[C@H](C)C(=O)OC)cs1)C(C)C)C1CC1` (stereo partly drawn): the GI50 was 0.768 µM and the TGI is greater than 15 µM.

Compound `NCCn1cnc2nc(NC(=O)c3ccccc3)[nH]c(=O)c21` registered a total growth inhibition concentration (TGI) greater than 100 µM.

In the case of `COc1ccc2c(c1)C(=O)c1c-2n(CCCN=[N+]=[N-])c(=O)c2cc(N)ccc12`, the GI50 is greater than 100 µM and the TGI was greater than 100 µM. For `COc1cc2oc(-c3cccc(C(=O)Nc4ccc(C)cc4)c3)cc(=O)c2c(OC)c1OC`, the GI50 is 3.82 µM and the total growth inhibition concentration (TGI) was greater than 100 µM. Regarding `CCOC(=O)Nc1ccc(C(=O)/C=C/c2ccccc2)cc1`, the GI50 is 30.2 µM and the TGI is greater than 100 µM. The like results for `CCOc1ccc2c(c1)C(=O)c1c-2n(CCCN)c(=O)c2cc([N+](=O)[O-])ccc12` were, in that order, 0.547 µM and 1.94 µM. The compound `Cc1cc(C)nc(NS(=O)(=O)c2ccc(Nc3nnc(/C=C/c4c(O)ccc5ccccc45)c(=O)n3N)cc2)n1` registered a concentration for total growth inhibition (TGI) greater than 100 µM. Turning to `Cc1cccc2c(N=Nc3ccccc3[N+](=O)[O-])c(O)[nH]c12`, the concentration for total growth inhibition (TGI) turned out to be 63.3 µM. As for `CC(C)(C)OC(=O)NC(Cc1ccc(OCc2ccccc2)cn1)C(=O)O` (stereo not drawn), the concentration for total growth inhibition (TGI) is greater than 100 µM.

As for `Cn1c(-c2cccs2)cc(-c2ccsc2)c1-c1cccs1`, the TGI is greater than 100 µM. On to `COc1ccc2c(c1)C1c3ccccc3CCN1CCC2` (stereo not drawn), for which the TGI is greater than 100 µM. As for `CNC(=O)OCc1nc(N=[N+]=[N-])n(C)c1COC(=O)NC`, the concentration for total growth inhibition (TGI) was greater than 100 µM. The compound `O=C1COc2cc3c(cc2N1)SCCC(=O)N3` registered a concentration for total growth inhibition (TGI) greater than 100 µM. The compound `O=C1C(CO)=C[C@@H](O)[C@H]2O[C@@H]12` gave a TGI greater than 100 µM.

As for `Nc1ncnc2c1ncn2[C@@H]1C[C@H](NO)[C@@H](O)[C@H]1O`, the TGI was greater than 100 µM.

In the case of `COC(=O)[C@@H]1[C@H](O)[C@H](C)[C@H](O)[C@H](C)/C=C\C=C(C)C(=O)Nc2c(C)c(OC(C)=O)c3c(c2O)C(=O)C(C)=C2OCOC(=C23)C(C)=C[C@@](C)(O)[C@H](O)[C@@H](C)[C@H]1OC(C)=O`, the TGI is greater than 100 µM.

For the compound `C=C1C(=O)O[C@H]2[C@H]1CC/C(COC(=O)C(=O)c1c[nH]c3ccc(Cl)cc13)=C\CC[C@@]1(C)O[C@@H]21`, the GI50 was 1.8 µM and the TGI amounted to 4.25 µM. Turning to `CN(C)CCC(=O)N1CCc2c([nH]c3ccccc23)C1c1cccnc1` (stereo not drawn), the TGI is greater than 100 µM. Still for that read-out and setting: under `CC(=O)OC1CC2C(C)(C)OC(=O)CC(OC(C)=O)[C@]2(C)C2CCC3(C)C(=CCC3c3ccoc3)[C@]12C` (stereo partly drawn) stands greater than 100 µM.

`COC(=O)C1=CO[C@@H](OC2OC(CO)C(O)C(O)C2O)[C@@H]2[C@H](C)[C@@H](O)[C@@H](O)[C@]12O` (stereo partly drawn) showed a TGI greater than 100 µM. In turn, `Cc1ccccc1NC(=O)C(=O)CC(=O)C1CCOC1=O` (stereo not drawn) gave a total growth inhibition concentration (TGI) greater than 100 µM. Compound `COc1cccc2c1C(=O)c1c(O)c3c(c(O)c1C2=O)C[C@@](O)(C(C)=O)C[C@@H]3OC1CC(O)C(O)C(C)O1` (stereo partly drawn) displayed a concentration for total growth inhibition (TGI) of 49.8 µM. That is a double-digit micromolar value. Same read-out and setting: under `O=S1(=O)c2ccccc2-c2nccc3ccnc1c23` stands greater than 100 µM. With `O=C1Nc2ccc(CN3CCOC3=O)cc2/C1=C/c1cc(CN2CCOCC2)c[nH]1`, the GI50 is 95.7 µM and the total growth inhibition concentration (TGI) was greater than 100 µM. Regarding `CNc1cccc2c1C(C)C[C@]1(C)C(=O)Nc3ccccc3[C@H]21` (stereo partly drawn), the TGI came to 72.8 µM. Still for that read-out and setting: under `CC1(C)N([O-])[N+](=O)C1(Br)c1ccccc1` (stereo not drawn) stands greater than 100 µM.

Take `C/C(=C(/C)c1cc[n+](C)cc1)c1cc[n+](C)cc1`: the TGI is greater than 75 µM. As for `NC(=NCCO)c1ccc(N2CCCN(c3ccc(C(N)=NCCO)cc3)CC2)cc1`, the GI50 was greater than 100 µM and the concentration for total growth inhibition (TGI) was greater than 100 µM. `COc1ccc(-c2cc(=O)c3ccc(F)cc3[nH]2)cc1` had a concentration for total growth inhibition (TGI) greater than 100 µM.

Regarding `CC1=C/C(O)CC(=O)Cc2nc(co2)C(=O)N2CCC=C2C(=O)OC(C(C)C)C(C)/C=C\C(=O)NC/C=C\1` (stereo not drawn), the GI50 is 34.1 µM and the concentration for total growth inhibition (TGI) was greater than 100 µM. Compound `O=c1[nH]cc(COCC(O)CO)c(=O)[nH]1` (stereo not drawn) returned a concentration for total growth inhibition (TGI) greater than 100 µM.
